Results published in the supplement of paper PMC4967469.
The IC50 comes from the fitted curve, where viability falls to half of the control; where the fit passes the top or lowest dose, that dose stands as a limit. The AUC spans the tested range (256-fold, ending at the top dose) of the same fit: 1 means no effect, lower means more sensitive. For part of these data: The top dose, if marked as inferred, is not printed in the source and was worked back from the curve model.

How the values were obtained:
Assay in all cases: Viability of human cancer cell lines after 72 h of drug (GDSC screen)
AV-951 = compound: COc1cc2nccc(Oc3ccc(NC(=O)Nc4cc(C)on4)c(Cl)c3)c2cc1OC [AV-951]; conditions: top dose 0.128 µM; top dose inferred
Description: (§1)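 Human cancer cell lines in 384-well plates, medium with 10% serum, drug for 72 h over a 256-fold dose range (nine 2-fold or five 4-fold steps up to the top dose). Adherent lines were fixed and stained with the nucleic acid dye Syto60, suspension lines read with resazurin; signal relative to control wells, capped at 0 and 100%. One two-parameter sigmoid per drug and line, fitted in a mixed model over all curves with the slope shared within a line.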

PF-4708671 = compound: CCc1cncnc1N1CCN(Cc2nc3ccc(C(F)(F)F)cc3[nH]2)CC1 [PF-4708671]; conditions: top dose 10 µM; top dose inferred
Description: as §1

Trametinib = compound: CC(=O)Nc1cccc(-n2c(=O)n(C3CC3)c(=O)c3c(Nc4ccc(I)cc4F)n(C)c(=O)c(C)c32)c1 [Trametinib]; conditions: top dose 1 µM
Description: as §1

HG-6-64-1 = compound: CCN1CCN(Cc2ccc(NC(=O)c3ccc(C)c(/C=C/c4cnc5[nH]ccc5c4OC)c3)cc2C(F)(F)F)CC1 [HG-6-64-1]; conditions: top dose 5.12 µM; top dose inferred
Description: as §1

KIN001-244 = compound: O=C(NC(COc1ccc2[nH]c(=O)[nH]c2c1)c1ccccc1)c1cccn(Cc2ccc(F)c(F)c2)c1=O [KIN001-244]; conditions: top dose 20 µM; top dose inferred
Description: as §1

I-BET-762 = compound: CCNC(=O)C[C@@H]1N=C(c2ccc(Cl)cc2)c2cc(OC)ccc2-n2c(C)nnc21 [I-BET-762]; conditions: top dose 20 µM; top dose inferred
Description: as §1

Cell Line	AUC (AV-951)	IC50 (AV-951)	AUC (PF-4708671)	IC50 (PF-4708671)	AUC (Trametinib)	IC50 (Trametinib)	AUC (HG-6-64-1)	IC50 (HG-6-64-1)	AUC (KIN001-244)	IC50 (KIN001-244)	AUC (I-BET-762)	IC50 (I-BET-762)
PA-TU-8988T (pancreas, adherent)	0.987	> 128 nM	0.922	> 10 µM	0.281	14.9 nM	0.66	891 nM	0.908	> 20 µM	0.976	> 20 µM
PANC-02-03 (pancreas, adherent)	0.969	> 128 nM	0.932	> 10 µM	0.314	16.8 nM	0.843	4730 nM	0.808	12.9 µM	0.748	7.59 µM
PANC-03-27 (pancreas, adherent)	0.982	> 128 nM	0.989	> 10 µM	0.506	64.7 nM	0.72	1280 nM	0.906	> 20 µM	0.989	> 20 µM
PANC-08-13 (pancreas, adherent)	0.97	> 128 nM	0.943	> 10 µM	0.964	> 1000 nM	0.703	1420 nM	0.951	> 20 µM	0.887	> 20 µM
